Assay results published in PubChem BioAssay AID540317 (National Center for Advancing Translational Sciences (NCATS), 2011).
The whole screen tested about 390,000 compounds, of which about 2,200 (0.56%) were called active. This list was built around the results that the source calls inconclusive (neither active nor inactive); the mix of calls is not that of the screen. Calls come from the whole dose curve; as a rule, active = well fitted inhibition curve with a large enough effect; inconclusive = small, poorly fitted or top-dose-only effect; inactive = no such curve, though single readings can be large or run the other way. Where the call is inconclusive, the potency comes from a doubtful curve fit.
Note: nearly all actives have a fitted effect of over 70% in size.
Potency is the fitted concentration of half-maximal effect; tags give direction and shape of the fitted curve.

These compounds were tested against Chromobox protein homolog 1 (Homo sapiens) (UniProt P83916) (assay: HTS for Inhibitors of HP1-beta Chromodomain Interactions with Methylated Histone Tails). Conditions: AlphaScreen HP1-beta / biotin-H3K9me3 peptide binding; series mostly up to 114 µM; activity change, negative = inhibition: at the top concentration.
UniProt P83916, sequence (P83916 whole entry, looked up): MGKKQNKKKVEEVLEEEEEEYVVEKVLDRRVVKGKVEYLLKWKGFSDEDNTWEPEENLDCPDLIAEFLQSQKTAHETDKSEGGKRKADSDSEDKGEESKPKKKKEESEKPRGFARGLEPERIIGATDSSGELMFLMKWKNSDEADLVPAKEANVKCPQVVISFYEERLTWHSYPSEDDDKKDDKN
In short: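 Compound inhibition of the preformed complex between 50 nM HP1-beta and 50 nM biotinylated H3K9me3 peptide was read by AlphaScreen. Buffer was PBS pH 7.4 with 0.01% Tween-20. Incubations ran 30 min at room temperature, with 10 ug/mL donor/acceptor beads.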
`CCOC(=O)c1nnn(-c2nonc2-n2cccc2)c1-c1cccc([N+](=O)[O-])c1` was tested, and the Potency was inconclusive: 39.8 µM [inhibitor, partial curve].
For `COc1cc(S(=O)(=O)NCCc2c(C)[nH]c3ccccc23)c(C)cc1C`, the Potency was inconclusive: 50.1 µM [inhibitor, partial curve].
For `O=C(NCCO)c1cc2cc(Cl)cc(Cl)c2oc1=O`, the Potency was inconclusive: 7.08 µM [inhibitor, full curve].
In the case of `Cc1onc(C(=O)NN)c1-c1csc(COc2ccc(Cl)cc2)n1`, the “activity change, negative = inhibition” value is reported as inactive: 51.4%.
For `COc1cccc(OCCOc2ccc(/C=C3/SC(=S)NC3=O)cc2)c1`, the Potency was inconclusive: 12.6 µM [inhibitor, full curve].
For `COc1cc(C(=O)OCC(=O)c2cc(C)n(C)c2C)cc(OC)c1OC`, the Potency was inconclusive: 70.8 µM [inhibitor, single point].
In the case of `Cc1nc(CC(=O)c2ccc(O)cc2O)cs1`, the “activity change, negative = inhibition” value is reported as inactive: 27.7%.
`CCCCC1=NN(C(=O)c2cccnc2)C(O)(C(F)(F)F)C1` (configuration not stated) was tested, and the Potency was inconclusive: 89.1 µM [inhibitor, single point].
With `CN(C)Cc1c(O)ccc2c(=O)c(-c3ccc(Cl)cc3)coc12` the “activity change, negative = inhibition” value was inactive: 23.4%.
In the case of `CCOc1ccc(C(=O)NC(=S)Nc2ccccc2N2CCCCC2)cc1[N+](=O)[O-]`, the Potency is reported as inconclusive: 25.1 µM [inhibitor, partial curve, poor fit].
In the case of `COc1cccc(OCCCCN2CC(C)OC(C)C2)c1` (configuration not stated), the Potency is reported as inconclusive: 14.1 µM [inhibitor, full curve].
For `O=C(COC(=O)c1ccc2c(c1)OCCO2)NCCc1ccc(F)cc1`, the “activity change, negative = inhibition” value was inactive: 44.3%.
`Oc1c(Cl)c(Cl)c2ncccc2c1Cl` was tested, and the Potency was inconclusive: 79.4 µM [inhibitor, single point].
For `C#CCOCCOCCOCCNc1nc(N2CCN(C(=O)CCCCCCCCCCNC(=O)[C@@H](CCSC)n3cc(CCO)nn3)CC2)nc(N2CCN(C(=O)CCCCCCCCCCNC(=O)[C@H](CO)n3cc(CCCCCN)nn3)CC2)n1`, the Potency was inconclusive: 56.2 µM [inhibitor, single point].
In the case of `CN(C)c1cccc(C(=O)Nc2ccc(S(=O)(=O)Nc3nccs3)cc2)c1`, the “activity change, negative = inhibition” value is reported as inactive: -12.6%.
`O=c1cc(CN2CCc3ccccc32)nc2sccn12` was tested, and the Potency was inconclusive: 44.7 µM [inhibitor, partial curve, poor fit].
For `Cc1ccc(CN2CCN(/N=C/c3sccc3C)CC2)c(C)c1`, the Potency was inconclusive: 22.4 µM [inhibitor, full curve, poor fit].
`CCOc1ccc(NC(=O)c2c(NC(=O)Cc3ccccc3)sc3c2CCCCC3)cc1` was tested, and the Potency was inconclusive: 5.62 µM [inhibitor, full curve, poor fit].
For `COc1ccc(NCc2cccn2-c2nnc(N3CCCCC3)s2)cc1OC`, the Potency was inconclusive: 44.7 µM [inhibitor, partial curve].
In the case of `COc1ccc(CCNc2ncnc3c2cnn3-c2cc(Cl)ccc2C)cc1`, the “activity change, negative = inhibition” value is reported as inactive: 58.3%.
`O=[N+]([O-])c1ccc(Nc2ccc(N3CCOCC3)cc2)c([N+](=O)[O-])c1` was tested, and the Potency was active: 31.6 µM.
For `c1c2c(cc3sc(N4CCOCC4)nc13)OCO2`, the Potency was inconclusive: 3.98 µM [inhibitor, full curve, poor fit].
With `Cc1cccc(-n2c(C)cc(/C=N/O)c2C)c1` the Potency was inconclusive: 70.8 µM [inhibitor, partial curve].
For `CCCc1cc(-c2[nH]ncc2-c2ccc(C(=O)OCC)o2)c(O)cc1O`, the Potency was inconclusive: 20 µM [inhibitor, partial curve, poor fit].
For `CC(C)Oc1cccc(-c2cc(C(=O)NC(=S)N(C)c3ccccc3C(=O)O)c3ccccc3n2)c1`, the Potency was inconclusive: 28.2 µM [inhibitor, partial curve].
For `Cc1ccc(-c2nc(C)sc2CC(=O)OCC(=O)Nc2cccc([N+](=O)[O-])c2)cc1`, the Potency was inconclusive: 28.2 µM [inhibitor, partial curve, poor fit].
With `CCc1nn2c(=O)cc(COC(=O)COc3ccc(OC)cc3)nc2s1` the Potency was inconclusive: 89.1 µM [inhibitor, single point].
`CN1CCN(CCCCOc2ccccc2C=O)CC1` was tested, and the Potency was inconclusive: 15.8 µM [inhibitor, full curve, poor fit].
For `CCOC(=O)c1sc2ncn(CC(=O)Nc3ccc(OCC)cc3)c(=O)c2c1C`, the “activity change, negative = inhibition” value was inactive: 23.2%.
For `CC1Cc2ccccc2N1C(=S)NC(=O)c1cccc(Br)c1` (configuration not stated), the Potency was inconclusive: 28.2 µM [inhibitor, partial curve].
With `Nc1c(C(=O)O)ccc2c1C(=O)c1ccccc1C2=O` the Potency was inconclusive: 39.8 µM [inhibitor, partial curve].
`Cc1c(NC(=O)c2ccc(-c3cccc([N+](=O)[O-])c3)o2)cccc1-c1nc2cc(Cl)ccc2o1` was tested, and the “activity change, negative = inhibition” value was inactive: 32%.
With `COC(=O)c1ccc(CN(Cc2ccc(C(=O)OC)o2)C(C)(C)C)o1` the “activity change, negative = inhibition” value was inactive: 26%.
`O=C(NCCC1=CCCCC1)c1ccc2c(c1)N(Cc1cccc(Cl)c1)C(=O)c1ccccc1S2=O` (configuration not stated) was tested, and the “activity change, negative = inhibition” value was inactive: 4.49%.
`CC1=NN(c2ccccc2)C(=O)/C1=C/c1ccc(-c2ccc(C)c(C(=O)O)c2)o1` was tested, and the Potency was inconclusive: 14.1 µM [inhibitor, full curve].
In the case of `Cc1ccccc1Sc1ccc([N+](=O)[O-])cn1`, the Potency is reported as inconclusive: 31.6 µM [inhibitor, partial curve, poor fit].
With `Cc1ccc(OCCCCN2CCC(C)CC2)cc1` the Potency was inconclusive: 56.2 µM [inhibitor, partial curve, poor fit].
With `O=C(NNC(=S)NCc1ccc(Cl)cc1)c1ccc2c(c1)OCO2` the “activity change, negative = inhibition” value was inactive: 47.6%.
`CN(c1ccc(C(=O)N2CCN(c3ccc(F)cc3)CC2)cc1)S(C)(=O)=O` was tested, and the “activity change, negative = inhibition” value was inactive: -21.7%.
With `O=C(O)CCCC(=O)Nc1ccc(OCc2nc3ccccc3s2)cc1` the Potency was inconclusive: 7.94 µM [inhibitor, full curve].
With `Cc1ccccc1-c1cc2c(nn1)-c1ccccc1C2=O` the Potency was inconclusive: 50.1 µM [inhibitor, partial curve].
For `COc1cc(/C=N/NC(=O)CC#N)cc(Br)c1O`, the Potency was inconclusive: 39.8 µM [inhibitor, full curve].
`CCOC(=O)C(=NCCCN(C)C)NNc1cc(C(F)(F)F)ccc1Cl` was tested, and the Potency was inconclusive: 44.7 µM [inhibitor, partial curve].
`O=C(O)/C(=C\c1ccccc1Cl)c1ccc(S(=O)(=O)N2CCCCC2)s1` was tested, and the “activity change, negative = inhibition” value was inactive: 34.5%.
`CC(=O)Nc1ccc(NC(=O)C2CCN(C(=O)C3CC(=O)N(c4ccc(C)cc4)C3)CC2)cc1` (configuration not stated) was tested, and the “activity change, negative = inhibition” value was inactive: 3.39%.
With `COc1ccc(CC(=O)N/N=C/c2cccn2-c2ccc([N+](=O)[O-])cc2)cc1OC` the Potency was inconclusive: 15.8 µM [inhibitor, full curve, poor fit].
In the case of `COc1ccc(NC(=S)Nc2ccccc2OC)c(OC)c1`, the Potency is reported as inconclusive: 70.8 µM [inhibitor, partial curve].
In the case of `CCCCn1nc(C(=O)Nc2cc(C(F)(F)F)ccc2N2CCOCC2)ccc1=O`, the “activity change, negative = inhibition” value is reported as inactive: 33.6%.
For `COc1ccc(CNc2ncc(-c3ccccc3)n2C)c2ccccc12`, the Potency was inconclusive: 22.4 µM [inhibitor, partial curve].
With `CC(C)c1nc(N2CCN(C(=O)c3ccco3)CC2)c2c3c(sc2n1)CCCC3` the Potency was inconclusive: 50.1 µM [inhibitor, partial curve, poor fit].
In the case of `COc1cc(/C=N/N=C(N)N)ccc1OCc1ccccc1Cl`, the “activity change, negative = inhibition” value is reported as inactive: -9.24%.
In the case of `COCCCN1CC(=O)N2C(c3cccc(C)c3)c3[nH]c4ccccc4c3C[C@H]2C1=O` (some centres not stated), the Potency is reported as inconclusive: 89.1 µM [inhibitor, single point].
In the case of `COc1cccc(C(=O)NCC(c2cccs2)N2CCc3ccccc32)c1` (configuration not stated), the Potency is reported as inconclusive: 44.7 µM [inhibitor, partial curve, poor fit].
For `COc1cc(C2C(C#N)=C(N)Oc3c2ccc2ccccc32)ccc1OCC(=O)Nc1ccccc1C` (configuration not stated), the Potency was inconclusive: 28.2 µM [inhibitor, single point].
For `Cc1cc(C)n(C(=O)CNC(=O)c2ccco2)n1`, the “activity change, negative = inhibition” value was inactive: 19.7%.
In the case of `Cc1cc(-c2nc3c4c5c(sc4[nH]c(=O)n3n2)CCC5)c(C)o1`, the Potency is reported as inconclusive: 79.4 µM [inhibitor, partial curve].
With `COc1cc(CN2CCC(C(=O)N3CCN(c4ccccc4F)CC3)CC2)ccc1O` the Potency was inconclusive: 89.1 µM [inhibitor, single point].
With `COc1ccccc1-n1c(SCC(=O)c2ccc(O)cc2O)nc2cc([N+](=O)[O-])ccc21` the “activity change, negative = inhibition” value was inactive: -17.1%.
In the case of `COC(=O)C1CSc2[nH]c(=O)sc2C1c1ccccc1` (configuration not stated), the Potency is reported as inconclusive: 31.6 µM [inhibitor, partial curve, poor fit].
`CCN(CC)S(=O)(=O)c1ccc(O)c(NC(=O)c2ccc(N3CCOCC3)c([N+](=O)[O-])c2)c1` was tested, and the Potency was inconclusive: 12.6 µM [inhibitor, partial curve, poor fit].
In the case of `CCN(CC)c1ccc(NC(=O)COC(=O)c2ccc3ccccc3n2)cc1`, the Potency is reported as inconclusive: 31.6 µM [inhibitor, partial curve].
In the case of `CC(C)N=C1NN=C(c2ccc(F)cc2)CS1`, the “activity change, negative = inhibition” value is reported as inactive: 16.2%.
For `CCCCN(CCCC)S(=O)(=O)c1ccc2oc(C(=O)NCc3ccc(C)cc3)c(C)c2c1`, the “activity change, negative = inhibition” value was inactive: 39.4%.
`COc1cc(/C=N/N(C)c2ccccc2)ccc1O` was tested, and the Potency was inconclusive: 50.1 µM [inhibitor, partial curve].
With `N#CC(C#N)=C1C=CC=CN1/C(=C\c1ccccc1Cl)C(=O)c1ccccc1` the Potency was inconclusive: 17.8 µM [inhibitor, partial curve, poor fit].
`COc1cc(CN2CCN(c3cccc(C)c3C)CC2)cc([N+](=O)[O-])c1O` was tested, and the Potency was inconclusive: 50.1 µM [inhibitor, partial curve, poor fit].
With `O=C1N=C(N2CCCC2C(=O)O)S/C1=C\c1ccco1` (configuration not stated) the Potency was inconclusive: 10 µM [inhibitor, full curve].
